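Five concentrations, 48 hours, 96-well plates. Abbreviation: GI50, concentration required for 50% inhibition of growth. At the TGI there is no net growth.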
Tested on: NCI-H322M lung
Experiment: inhibition of tumour cell growth, NCI panel, 48 h

## NC1=CC(=O)c2cccnc2C1=O
  GI50: 12.2 µM
  TGI: 24.6 µM

## O=C(O)/C=C/C(=O)N1Cc2cc3ccccc3nc2C1
  TGI: > 100 µM

## CCOP(=O)(C=C=C1CCC2[C@@H]3CCc4cc(OC)ccc4C3CC[C@]12C)OCC (some centres not stated)
  TGI: 30.7 µM

## CC(C)(C)OC(=O)N[C@H]1CC(O)c2ccccc2N(CC(=O)O)C1=O (some centres not stated)
  TGI: > 100 µM

## CC[C@H]1CN2CCc3cc(OC)c(OC)cc3C2C[C@@H]1CC1NCCc2cc(OC)c(OC)cc21 (some centres not stated)
  TGI: 0.19 µM

## CC1(C)CC(O)C2=C(O1)C(=O)c1ncccc1C2=O (configuration not stated)
  TGI: 28.4 µM

## Nc1ccc2nc3c(nc2c1)C(=O)c1ccccc1-3
  TGI: > 100 µM

## Cn1cc(C2=C(c3ccccc3[N+](=O)[O-])C(=O)NC2=O)c2ccccc21
  GI50: 7.39 µM
  TGI: > 22.4 µM

## COc1ccccc1NC(=O)C1=C(C)NC(C)=C(C(=O)Nc2ccccc2OC)C1C1=CC=COC1
  TGI: > 100 µM

## COc1ccc(OC)c(CSc2ccc(OC)c(OC)c2)c1
  TGI: > 100 µM

## C[C@]12CCc3nc(Nc4cccc(O)c4)sc3C1=CC[C@@H]1[C@@H]2CC[C@]2(C)/C(=N\NC(N)=S)CC[C@@H]12
  GI50: 4.64 µM
  TGI: > 100 µM

## CSc1ccc(-c2ccccc(=O)c2O)cc1
  GI50: 0.469 µM
  TGI: > 100 µM

## CCCCCCCC/C=C/CCCCCCCC1=NC(C)(C)CN1CC(C)O (configuration not stated)
  GI50: 1.77 µM
  TGI: 4.09 µM

## COc1cc2nccc(Oc3ccc(NC(=O)NC4CC4)c(Cl)c3)c2cc1C(N)=O
  GI50: 36.3 µM
  TGI: > 100 µM

## C#CCNC(=O)N(CC#C)N=O
  TGI: > 100 µM

## CN(C)CCCC1c2ccccc2Oc2ccc(C(F)(F)F)cc21 (configuration not stated)
  TGI: 28.2 µM
